# ± gives the standard deviation of the averaged measurements. In all, about 33,000 sequences were measured (“E-score (dimensionless, -0.5 to 0.5)”: median about -0.049, highest 2% from about 0.37 on). The list shows a part of the results.
# System: T1, PmTbr T-box DNA-binding domain (GST fusion)
# T1 sequence: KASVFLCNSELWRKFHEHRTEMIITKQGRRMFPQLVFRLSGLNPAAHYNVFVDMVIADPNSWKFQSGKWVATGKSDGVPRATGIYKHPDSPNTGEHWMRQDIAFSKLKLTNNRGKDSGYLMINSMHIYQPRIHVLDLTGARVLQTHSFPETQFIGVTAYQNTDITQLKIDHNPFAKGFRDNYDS
# Assay: PBM E-score of 8-mer (E-score (dimensionless, -0.5 to 0.5)); Tbr is Tbrain of the sea star Patiria miniata (Pm) or the sea urchin Strongylocentrotus purpuratus (Sp); higher = stronger binding preference; most listed sequences are background and not binding sites
# Settings: the construct has about 5 more residues each side
# How it was run: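 Expression of GST-fused Tbr T-box DNA-binding domains, each holding the full T-box plus roughly five flanking residues, was carried out in BL21 E. coli at 20 °C, with purification by glutathione affinity chromatography. Universal Agilent arrays made double-stranded by primer extension were incubated with the protein at 200 nM in PBS (pH 7.5), then scanned and quantified. All ungapped 8-mers were scored from probe intensities, and each received an enrichment E-score from the Universal PBM Analysis Suite, averaged over duplicate arrays.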
row,Sequence,PBM E-score of 8-mer
1,AAACACTA,0.0648 ± 0.087
2,AAAAGGGA,-0.282 ± 0.053
3,CGCGTTGA,0.148 ± 0.048
4,CCGAAGAC,-0.195 ± 0.034
5,ATCCAGGC,-0.181 ± 0.021
6,CTCTAGCC,-0.0369 ± 0.02
7,GGAAGCCC,-0.317 ± 0.047
8,CTCGCCGC,0.196 ± 0.014
9,CGTAGAGA,-0.22 ± 0.0053
10,AACCCGAG,-0.127 ± 0.026
11,GGTCCCTA,-0.162 ± 0.021
12,CGATATAC,-0.104 ± 0.054
13,GCCCTCAA,-0.147 ± 0.065
14,CTGTCGTA,0.0388 ± 0.044
15,ACCGGAGA,0.0556 ± 0.013
16,GTTTTACA,0.0499 ± 0.15
17,CTCTATTC,-0.103 ± 0.052
18,GTAATGAC,0.0149 ± 0.0045
19,ATCCACGC,0.052 ± 0.054
20,ACGTGCTA,0.417 ± 0.019
21,CACTGCGA,0.056 ± 0.026
22,CTTCTCAA,0.101 ± 0.033

row,Sequence,PBM E-score of 8-mer
1,AGGAGACA,0.0199 ± 0.06
2,CTGGGTTC,-0.282 ± 0.051
3,GTAAGAGA,-0.248 ± 0.022
4,ACCTTTAT,0.0337 ± 0.024
5,GCGTACCC,-0.0721 ± 0.014
6,CAATTCGC,0.223 ± 0.0062
7,GGCGGAGA,-0.163 ± 0.026
8,GCATCGGC,-0.309 ± 0.053
9,GTAGGTTA,-0.189 ± 0.025
10,GTCTAAGA,-0.0702 ± 0.07
11,CCCTGTCA,0.187 ± 0.022
12,AATGCAAT,-0.165 ± 0.014
13,GGTTGTTA,0.134 ± 0.02
14,CGAACCAG,-0.0484 ± 0.098
15,TCTACCAA,-0.108 ± 0.019
16,AGGGCAGA,-0.12 ± 0.043
17,ACCCTGGA,-0.082 ± 0.095
18,ATCGAGCG,-0.16 ± 0.02
19,ACAGACCT,-0.0748 ± 0.12
20,GATCTACA,-0.139 ± 0.0057
21,AAAATTCA,-0.00773 ± 0.07
22,CAAAGGTC,-0.13 ± 0.039

row,Sequence,PBM E-score of 8-mer
1,ACGGTTGA,0.0857 ± 0.0053
2,AGTACCCG,-0.0417 ± 0.018
3,AATCGGAT,-0.0836 ± 0.085
4,CCAGTCGA,-0.165 ± 0.021
5,AGTCTTCG,-0.00126 ± 0.024
6,GGGAACGA,-0.00795 ± 0.025
7,CAGTGGGA,-0.212 ± 0.077
8,CATCAAAC,-0.0906 ± 0.034
9,GGGTTGGA,0.07495 ± 0.00042
10,CTTACGGA,-0.148 ± 0.083
11,CGGAGAAG,0.0198 ± 0.018
12,CCCACAAA,-0.0436 ± 0.055
13,AAATAGTG,0.105 ± 0.017
14,AGTAAGAT,-0.0969 ± 0.02
15,AACTCTCA,0.11 ± 0.052
16,CTCCTGGC,-0.0793 ± 0.032
17,GACTGGAA,-0.114 ± 0.012
18,AGGCGCCC,-0.0427 ± 0.0063
19,CGACAGTA,0.103 ± 0.019
20,ATATTGCC,-0.106 ± 0.095
21,AACACACC,0.3 ± 0.019
22,AGTACATC,-0.228 ± 0.039

row,Sequence,PBM E-score of 8-mer
1,ACAAAGTA,-0.0804 ± 0.029
2,ACGCCCAA,0.0023 ± 0.037
3,CGGCTGGA,-0.115 ± 0.022
4,AGTAATAC,-0.265 ± 0.022
5,AGTGAATA,0.05 ± 0.073
6,GGCGCAAC,0.114 ± 0.099
7,AAAGTAAC,0.2154 ± 0.00077
8,ACCTCTAG,0.0925 ± 0.0099
9,GCTGTCAA,0.323 ± 0.014
10,AAGGAAGG,-0.149 ± 0.022
11,TCAGAACA,-0.164 ± 0.058
12,CACTAGTC,0.152 ± 0.015
13,GTGCACTA,0.163 ± 0.0059
14,ACCAGTGC,0.0674 ± 0.07
15,AAGTGAGT,0.0914 ± 0.0086
16,CGGTAAGA,-0.2889 ± 0.0013
17,CCCACGGG,-0.311 ± 0.035
18,AACTGTGC,0.0163 ± 0.0056
19,CAAGCTCC,-0.181 ± 0.059
20,CATTGCGC,-0.0924 ± 0.053
